About 2,200 (0.71%) of roughly 310,000 compounds showed an effect of 50% or more. Effects have a minus sign here. This is one part of the list.
target: human ether-à-go-go-related gene (hERG) potassium channel (human, UniProt Q12809); experiment: primary screen, population patch clamp on CHO cells stably expressing hERG
Sequence (Q12809 whole entry, looked up): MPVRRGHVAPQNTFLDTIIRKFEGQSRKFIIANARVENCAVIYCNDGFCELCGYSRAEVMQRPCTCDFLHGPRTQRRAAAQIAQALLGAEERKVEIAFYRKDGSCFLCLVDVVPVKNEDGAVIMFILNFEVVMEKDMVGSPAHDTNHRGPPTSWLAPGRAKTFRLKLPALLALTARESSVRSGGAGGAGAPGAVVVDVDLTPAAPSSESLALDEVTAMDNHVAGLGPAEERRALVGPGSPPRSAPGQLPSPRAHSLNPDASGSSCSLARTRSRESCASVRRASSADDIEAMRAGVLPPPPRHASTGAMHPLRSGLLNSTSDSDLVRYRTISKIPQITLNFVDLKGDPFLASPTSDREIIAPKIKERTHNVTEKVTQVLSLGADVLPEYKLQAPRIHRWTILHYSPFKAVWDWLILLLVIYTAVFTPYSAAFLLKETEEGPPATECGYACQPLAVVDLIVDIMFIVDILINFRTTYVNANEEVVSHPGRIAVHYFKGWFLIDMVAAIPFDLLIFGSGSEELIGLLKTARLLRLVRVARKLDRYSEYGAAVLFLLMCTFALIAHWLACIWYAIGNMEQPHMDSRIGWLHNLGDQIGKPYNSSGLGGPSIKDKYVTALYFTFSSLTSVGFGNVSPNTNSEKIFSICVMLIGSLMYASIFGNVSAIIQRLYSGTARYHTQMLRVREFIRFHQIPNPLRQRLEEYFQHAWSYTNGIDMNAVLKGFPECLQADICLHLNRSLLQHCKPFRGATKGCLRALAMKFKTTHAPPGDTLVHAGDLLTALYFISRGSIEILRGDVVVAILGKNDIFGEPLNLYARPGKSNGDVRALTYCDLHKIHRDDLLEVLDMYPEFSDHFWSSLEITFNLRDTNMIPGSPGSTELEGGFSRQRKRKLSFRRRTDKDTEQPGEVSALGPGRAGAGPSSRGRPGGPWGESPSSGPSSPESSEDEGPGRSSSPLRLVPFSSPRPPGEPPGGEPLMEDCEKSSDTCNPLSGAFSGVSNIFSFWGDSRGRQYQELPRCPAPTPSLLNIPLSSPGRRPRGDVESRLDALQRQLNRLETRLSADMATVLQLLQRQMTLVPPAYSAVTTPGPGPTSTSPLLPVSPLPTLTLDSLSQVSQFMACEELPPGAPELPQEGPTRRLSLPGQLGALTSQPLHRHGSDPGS

Row | SMILES | hERG current change (%, negative = inhibition) at 1uM [%]
1 | Cc1cccc(Oc2ncc(-c3ccc(Cl)cc3)cn2)c1 | 4.87
2 | OC[C@@H](O)[C@@H](O)CO | 8.33
3 | O=C(CCNS(=O)(=O)c1ccccc1)N1CCCCCC1 | 25.9
4 | O=C(c1ccc2c(c1)OCO2)N1CCN(c2ccc(C(F)(F)F)cn2)CC1 | -34.5
5 | Cc1nc(N2CCN(c3ccccc3)CC2)nc2c1C(=O)CCC2 | -0.421
6 | CCOC(=O)CN1NC2(CCCCC2)NC1=S | 14.4
7 | Cc1sc2ncn(CC(=O)N3CCN(c4ccccn4)CC3)c(=O)c2c1S(=O)(=O)N1CCC(C)CC1 | 11.9
8 | O=C(NCc1ccncc1)C1CCCN(S(=O)(=O)c2ccc(Br)cc2)C1 (stereo not shown) | -24.7
9 | COCC1CCN(C(=O)c2cc(COc3ccc(OC)c4ccccc34)on2)C1 (stereo not shown) | 9.08
10 | Oc1ccc(C[C@H]2CNCCN2CC2(c3ccccc3)CC2)cc1 | -0.516
11 | COc1ccc(C2CC(C)(c3ccc(OC)cc3)Nc3ccccc3N2)cc1 (stereo not shown) | 12.5
12 | CC(C)(C)C1CCC(C(=O)NCCc2ccc(S(N)(=O)=O)cc2)CC1 (stereo not shown) | 14.6
13 | CSc1ncc(Cl)c(C(=O)Nc2ccc(C)c(C)c2)n1 | 11.6
14 | COc1ccc(N2C(=O)CSC2c2cccc(F)c2)cc1 (stereo not shown) | 14.3
15 | CCN=C1S/C(=C\c2cn(CC(=O)NCCOC)c3ccccc23)C(=O)N1CC | 10.4
16 | Cc1ccc2nc3c(cc(C(=O)NC4CCCCC4)c(=N)n3C3CCCCC3)c(=O)n2c1 | -72.7
17 | COc1ccc(CCNCC(O)c2ccccc2)cc1.O=C(O)C(=O)O (stereo not shown) | -4.18
18 | C/C(N)=C(/C#N)C(=O)CSc1nc2scc(-c3ccc(F)cc3)c2c(=O)n1C | 5.8
19 | O=C(c1c[nH]c2ccccc2c1=O)N1CCCCCC1 | 12.3
20 | COc1ccc(NC(=O)CCNC(=O)C2CCN(S(=O)(=O)c3ccc(F)cc3)CC2)cc1OC | 13.5

Row | SMILES | hERG current change (%, negative = inhibition) at 1uM [%]
21 | Cn1cc(C(=O)N/N=C/c2cccs2)c2ccccc21 | -2.92
22 | O=C(CCN1CCOCC1)c1ccc2c(c1)OCCO2 | 8.47
23 | CC(C)COP(=O)(c1ccc(N(C)C)cc1)C(O)c1cccnc1 (stereo not shown) | 10.2
24 | CCc1ccc(N/C(SCc2cccc(F)c2)=C(/C#N)C(=O)NCc2ccco2)cc1 | 11.6
25 | Cc1ccccc1C(=O)NNC(=S)Nc1cccc(C(F)(F)F)c1 | 13.2
26 | CC(NCC(=O)Nc1ccccc1C(=O)NC1CC1)c1cccc(C(F)(F)F)c1 (stereo not shown) | -0.954
27 | CCSc1nnc(NC(=O)COc2ccc3ccccc3c2)s1 | 8.56
28 | O=C(Nc1cccc(-c2nc3ccccc3s2)c1)c1ccc2c(c1)OCO2 | -15.1
29 | COc1ccc(NS(=O)(=O)c2ccc3c(c2)Cc2ccccc2-3)cn1 | 16.8
30 | COc1ccc(S(=O)(=O)Nc2ccc3c(c2)OCCO3)cc1OC | 11.3
31 | COc1ccc2[nH]cc(C(=O)CN3CC(C)CC(C)C3)c2c1 (stereo not shown) | 6.1
32 | Cc1cccc(NC(=O)c2cc(=O)[nH]c3ccccc23)c1 | 20
33 | O=C(CNC(=O)c1cccs1)NCC(=O)OCc1ccccc1Br | 5.88
34 | CCC(=O)N(Cc1ccco1)c1nc(C(=O)Nc2ccc(Cl)cc2)c(C)s1 | 12.2
35 | O=C(COC(=O)/C=C/c1ccccc1Cl)NC1CCCCCC1 | 5.89
36 | CC(Sc1nnc(Cc2ccc([N+](=O)[O-])cc2)o1)C(N)=O (stereo not shown) | 2.44
37 | Cc1ccc(NC(=O)CN2C(=O)CSC2=O)cc1 | 7.19
38 | O=C(Nc1cccc(S(=O)(=O)Nc2ccc(Cl)cc2)c1)c1ccc[n+]([O-])c1 | 9.69
39 | CC(NC(=O)COC(=O)CNC(=O)C1CCCCC1)c1ccccc1 (stereo not shown) | 7.99
40 | CCC(C)OC(=O)C(C)Oc1ccc(-c2ccccc2)cc1 (stereo not shown) | 5.46

Row | SMILES | hERG current change (%, negative = inhibition) at 1uM [%]
41 | COc1ccc(C(=O)N2CCN(C(=O)C3COc4ccccc4O3)CC2)cc1OC (stereo not shown) | 1.84
42 | CCN(CC)S(=O)(=O)c1ccc(-c2csc(C)n2)s1 | 6.13
43 | CCn1c(SCC(=O)c2cc(C)n(C)c2C)nnc1-c1ccccc1 | 17.3
44 | CSc1ccc(/C=C(/NC(=O)c2ccccc2)C(=O)NCCCn2ccnc2)cc1 | -15.6
45 | O=C(CN(C(=O)CCC(=O)Nc1nccs1)c1ccc(F)cc1)NCc1ccc2c(c1)OCO2 | 15.3
46 | CCC(=O)N(CC(=O)Nc1sc(C)c(C)c1C(N)=O)C1CCCCC1 | 13.9
47 | O=C(Nc1ccccc1)c1ccc(-c2ccc([N+](=O)[O-])cc2)o1 | 9.95
48 | Cc1ccc(SCC(=O)Nc2nncs2)cc1 | 10.9
49 | Cn1c(O)c(C=NC2C(=O)C3(C)CCC2C3(C)C)c(=O)n(C)c1=O (stereo not shown) | 8.64
50 | Cc1cccc2c(C(=O)N3CCN(c4ccccc4)CC3)cc(-c3ccncc3)nc12 | 8.96
51 | O=C(CNC(=O)c1ccccc1Cl)c1ccccc1 | 19
52 | CCOC(=O)N1CCC2(CC1)C(C#N)=C(N)Oc1c2c(C)nn1-c1cccc(Cl)c1 | 6.91
53 | O=C(O)CCSc1nc2ccc(Br)cc2[nH]1 | 2.74
54 | O=C(O)c1cc(O)ccc1-c1ccc(O)cc1 | 8.59
55 | C=CCN(c1ccc(C(=O)NCCN2CCOCC2)cc1)S(C)(=O)=O | 3.57
56 | CCN(Cc1ccccc1)C(=O)COC(=O)Cn1cnc2ccccc21 | -5.98
57 | Cc1ccc(Nc2nc(CSc3nnc(-c4cccnc4)n3-c3ccccc3C)cs2)cc1 | 6.22
58 | CC(=O)NCc1ccc(C(=O)CSc2nnc(-c3ccncc3)n2Cc2ccccc2)o1 | 10.7
